The other results are listed elsewhere or left out.

This experiment concerns PF3D7_0420300 AP2 domain 1 (GST-tagged). Put plainly: gcPBM binding intensity (ln(normalized median fluorescence intensity)); higher = stronger DNA binding. The gist of the method:
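After 1 h on an Agilent 4 × 180k array of primer-extended double-stranded 36-bp intergenic genomic probes and negative controls, bound GST-tagged P. falciparum DNA-binding domains were detected with Alexa488 anti-GST antibody and scanned at 488 nm. The domains had been expressed in E. coli, and binding took place in 1× PBS with 1% milk, 0.2 mg/ml BSA, 0.5% salmon testes DNA and 0.03% Triton X-100. Binding intensity is the highest Masliner-normalised natural-log median intensity across replicate spots of either probe orientation.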
Regarding “ATAATTTTATATAAATGTACATACATTTTTATTATA [XGTACX_site7368]”, the “gcPBM binding intensity (ln)” value was 9.12.

With “ATATATATGTATATATGTACATATATGTATATATAT [XGTACX_site4772]”, the “gcPBM binding intensity (ln)” value is 9.19.

As for “TATACACATAGACACACACACATACACGCACATACA [CACACA_site6908]”, the “gcPBM binding intensity (ln)” value turned out to be 10.1.

In the case of “TCTAAAAAAATTATATCACACATTATAAAGCATATT [CACACA_site4885]”, the “gcPBM binding intensity (ln)” value stood at 9.26.

Turning to “TAATAAGTATCAAAATGTACATGACAAAAATAATTT [XGTACX_site8961]”, the “gcPBM binding intensity (ln)” value came out at 9.39.

Consider “ATTTGAAAAAATACTACACACCATATTGTTAATTTT [CACACA_site3829]”, for which the “gcPBM binding intensity (ln)” value stood at 9.44.

As to “AAGATTCATATAAAAAGTACAAAAAGAAAAAAATAA [XGTACX_site6033]”, the “gcPBM binding intensity (ln)” value was 9.33.

Regarding “TAATATATAAATATATGTACATAATAAATAGGATAT [XGTACX_site3661]”, the “gcPBM binding intensity (ln)” value turned out to be 9.44.

In the case of “TTTATATAAGGACATGCATGCTATTATTAAATATAT [TGCATGCA_site1011]”, the “gcPBM binding intensity (ln)” value worked out at 9.08.

On to “ACTTCATAGGTTACCTGTACATATAAGGAGTTATCA [XGTACX_site4110]”, for which the “gcPBM binding intensity (ln)” value worked out at 9.11.

On to “TACGCGAAATGAATATGTACATATATGAGGGCATAT [XGTACX_site4293]”, for which the “gcPBM binding intensity (ln)” value came to 9.31.

With “ATGAATTAACCTAATCGTACAATAAATATTATTATA [XGTACX_site596]”, the “gcPBM binding intensity (ln)” value was found to be 9.07.

For “ATATATATATATGTATGTATATATATATGTTTGATT [XGTACX_negctrl_site62]”, the “gcPBM binding intensity (ln)” value is 9.26.

Regarding “ACTATTTAAAAATATGGTACACGAAATTCAAGAGAA [XGTACX_site5903]”, the “gcPBM binding intensity (ln)” value is 9.35.

For the sequence “AAGTTTTATATTTATTAAATTTTTTTTTTTCCTTTT [XGTACX_negctrl_site184]”, the “gcPBM binding intensity (ln)” value is 9.

In the case of “TTTTTTATTTTGTTGAAGCAATGAAAATGAATGAAA [TGCATGCA_negctrl_site495]”, the “gcPBM binding intensity (ln)” value is 8.9.

Take “ATATGTTTAAAAATATGTACGTATTATATATTCTAT [XGTACX_site1358]”: the “gcPBM binding intensity (ln)” value came to 9.34.

For TTGTTTATGTGAGAAGTGCATTTTTTCGTTCATGTA, the “gcPBM binding intensity (ln)” value was 9.33.

Consider ATGTAAGTATAAAATGTGCGCATTGGGAATGAGGAC, for which the “gcPBM binding intensity (ln)” value was 9.98.

On to “TTTTTATTTTTTGTCTGTACATATATAAATTTATTA [XGTACX_site1525]”, for which the “gcPBM binding intensity (ln)” value turned out to be 9.37.

In the case of “GATATAAGGGTATGAAGTACATAAATATTTTATGCT [XGTACX_site1886]”, the “gcPBM binding intensity (ln)” value was 9.28.

As for “TATGCACGCGAACACACACACACAACTAAAAAATAA [CACACA_site7251]”, the “gcPBM binding intensity (ln)” value was 9.97.

As to “GGAAACCCTCCCAAATGTACTTTTATAAAAAAATAC [XGTACX_site5502]”, the “gcPBM binding intensity (ln)” value turned out to be 9.36.

Regarding “TATACTCAGAAACACACACACACACCCAAAAAAAAA [CACACA_site4434]”, the “gcPBM binding intensity (ln)” value was 9.97.

“ATATAAGTACATATAACACACATATATTATAAGTAT [CACACA_site2647]”: the “gcPBM binding intensity (ln)” value came to 9.62.

Take “TTTGCCATAAAACACACACACATGTAAACCCCCTTT [CACACA_site1646]”: the “gcPBM binding intensity (ln)” value was found to be 9.95.

For “AAAAAAAAAAAAAAAACACACATACACCCAGACACA [CACACA_site5807]”, the “gcPBM binding intensity (ln)” value amounted to 9.6.

As for “ATACATATATAAATATGTACACACATATGTATGATC [XGTACX_site8219]”, the “gcPBM binding intensity (ln)” value turned out to be 9.42.

For “GAATATTTATCATGGGGTACCTTAAAAAAGGGAAAA [XGTACX_site298]”, the “gcPBM binding intensity (ln)” value came out at 9.06.

For “TTTTATTTATAATATATACACACTAACATTATTTAT [CACACA_site1284]”, the “gcPBM binding intensity (ln)” value is 9.24.

As to “ATATCTTAAATTATTTGTACATATATATATATATAT [XGTACX_site8034]”, the “gcPBM binding intensity (ln)” value came to 9.35.

As to “AATATAAACCCAAACACACACATATATATATATATA [CACACA_site268]”, the “gcPBM binding intensity (ln)” value amounted to 9.81.

With “TTTTTTTTTTTGAGGAGGACACAAAAATATGCTACC [XGTACX_site756]”, the “gcPBM binding intensity (ln)” value was 8.94.

For “TATATTCTTTTAAACAGTACACACACACATATATAT [XGTACX_site1701]”, the “gcPBM binding intensity (ln)” value amounted to 10.2.

“AATATAAAAATATAAAAACACACGTAAAAAAATTTA [CACACA_site3399]”: the “gcPBM binding intensity (ln)” value was found to be 9.73.

With “AAAAAAATTAAAAATAAAGAAAAAAAAAAAAAAAAA [GTGCAC_negctrl_site401]”, the “gcPBM binding intensity (ln)” value amounted to 8.69.

On to “TGTAGATATTATATATGTACGCATATGAAATATATA [XGTACX_site1586]”, for which the “gcPBM binding intensity (ln)” value stood at 9.09.

“TTCAAAATATATATTTGTACATATAGGATCTTTTTC [XGTACX_site4500]”: the “gcPBM binding intensity (ln)” value was found to be 9.05.

On to “AAAATATATAATATAACACACATATATTCTATATGG [CACACA_site4044]”, for which the “gcPBM binding intensity (ln)” value was determined as 9.43.

“TAATTATATAAATATTGTACAAAAAAAATATATATA [XGTACX_site3137]”: the “gcPBM binding intensity (ln)” value worked out at 9.18.

Consider “GTAATATCAATATAAAGTACACACTATAGTATGTAT [XGTACX_site4714]”, for which the “gcPBM binding intensity (ln)” value came out at 9.52.

Take “TCTTTTTTTTTTTTTTTTTTTTTTTTTTTTTTTTTT [GTGCAC_negctrl_site18]”: the “gcPBM binding intensity (ln)” value was determined as 9.17.

For “ATTTTAATGACATATACACACAAAGGTTCATAACAA [CACACA_site5664]”, the “gcPBM binding intensity (ln)” value came to 9.58.

For the sequence “TTTTCTTTTTAAATTACACACACATATATATATGTA [CACACA_site9172]”, the “gcPBM binding intensity (ln)” value was found to be 9.66.

Consider “ATAAAACCAACATAGAGTACAGATCGACTATGTTTC [XGTACX_site4329]”, for which the “gcPBM binding intensity (ln)” value was 9.5.

Values taken from the supplement of paper PMC11417369.
